Results taken from the supplement of paper PMC10338343.
± gives the standard deviation. Over roughly 3,700 sequences, “pre-steady-state target cleavage rate” has its median near 0.02; the highest 2% begin near 0.23. Only a part is listed here, and it is no random draw.

test system: MILI (PIWIL2) piRISC loaded with Kctd7 piRNA (26 nt); assay: pre-steady-state target cleavage rate (min^-1); MIWI and MILI are mouse PIWI proteins and EfPiwi is from a freshwater sponge; tags in brackets are library labels; higher = faster piRNA-guided slicing of the target; settings: guide: Kctd7 piRNA 5'p-UGUUAAUCUCUCAGAGAAGGUGACAG; auxiliary factor: 500 nM mouse GTSF1
Method in brief: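 Reactions were run for 0–8 or 0–960 min at 33 °C in HEPES–potassium acetate buffer, combining 1 nM active affinity-purified piRISC with one synthetic guide, […] transcribed, DNA-blocked target RNA library and, in some cases, 500 nM GTSF1 partner protein. Sequencing of uncleaved targets followed, with normalisation to depth and to weakly complementary targets. Three trials were pooled, k3 was capped at 0.0001 min^-1, and the pre-steady-state cleavage rate was taken from a burst-and-steady-state fit.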
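Note: 1 nM active piRISC with 0.1 nM target library at 33 °C single turnover.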

Point of comparison: UAGUGUCUCACCUACUCUGAGAGAUUAACA, “pre-steady-state target cleavage rate” value 0.135 ± 0.01. Against it:
- UAGUGUGACACCUACUCUGAGAGAUUAACA — within error, 0.119 ± 0.01
- UAGUGACAGACGUUCUCUGAGAGAUUAACA — lower, 0.0625 ± 0.0075
- UAGUGACACACCUGUCUCUGAGAGAUUAACA — within error, 0.146 ± 0.013
- UAGUGACAGUGCUUCUCUGAGAGAUUAACG [g2:g19:cont:t1G] — lower, 0.0275 ± 0.005
- UAGUCUGUCACCUACUCUGUGAGAUUAACA — lower, 0.0411 ± 0.0038
- UAGUGUGACACCUUCUGUGAGAGAUUAACA — within error, 0.123 ± 0.015
- UAGUGACUCAGCUUCUCAGAGAGAUUAACA — lower, 0.0359 ± 0.0068
- UAGUGACACACCUUCUCAGAGAGAAUAACA — lower, 0.00771 ± 0.0047
- UAGUGUCUCACCUUGUCUGAGAGAUUAACA — lower, 0.0944 ± 0.017
- UAGUGUGUCACCUUCUCUGAGAGAUUAACG [g2:g25:cont:t1G] — higher, 0.267 ± 0.02
- UAGUGUGACACCUUCUCUGAGAGAUUAUCA — within error, 0.134 ± 0.041
- UAGUGAGGUCACCUUCUCUGAGAGAUUAACA — higher, 0.242 ± 0.016
- UAGUGACAGUGUUUCUCUGAGAGAUUAACA — lower, 0.0178 ± 0.0031
- UAGUGACAGUGCUUCACUGUGAGAUUAACA — lower, 0.0101 ± 0.0032
- UAGUCUGUGACCUUCUCUGAGAGAAUAACA — lower, 0.0745 ± 0.014
- UAGUCUGUGACCUUCUCUGAGAGUUUAACA — lower, 0.0891 ± 0.013
- UAGUGACAGUCGUUCUCUGUGAGAUUAACA — lower, 0.0095 ± 0.0024
- UAGUGACUCACCUUCUCGGAGAGAUUAACA — lower, 0.0917 ± 0.013
- UAGUGACAGUGGAUCUCUGAGAGAUUAACG [g2:g17:cont:t1G] — lower, 0.00311 ± 0.002
- UAGUGACAGUGCCUCUCUGAGAGAUUAACA — lower, 0.0078 ± 0.0026
- UAGUCAGUCAGCUUCUCUGAGAGAUUAACA — higher, 0.197 ± 0.0075
- UAGUGAGUCACCUUGCUCUGAGAGAUUAACA — higher, 0.351 ± 0.077
- UAGUGACAGACCUACUCUGAGACAUUAACA — lower, 0.0185 ± 0.0063
- UAGUGACAGACCUUCUGUGAGAGAUUAUGA — lower, 0.0075 ± 0.0057
- UAGUGACAGUCCUACUCUGUGAGAUUAACA — lower, 0.00893 ± 0.0024
- UAGUGAGUCACCAUCUGUGAGAGAUUAACA — lower, 0.0966 ± 0.0074
- UAGUGACAGUGCUUCUCUGAGAGAUUAAGA — lower, 0.00341 ± 0.0034
- UAGUGACUCACCUUCUCUGAGAAGAUUAACA — lower, 0.0306 ± 0.0083
- UAGUCUGUCACCUACUCUGAGAGAUUUACA — within error, 0.147 ± 0.019
- UAGUGACUGACCAUCUCUGAGAGAUUAACA — lower, 0.0929 ± 0.0065
- UAGUGACUGACCUUCUCUGAGAGAUUAUCA — within error, 0.104 ± 0.024
- UAGUGUGUCACCUUCUCUGAUAGAUUAACA — lower, 0.0742 ± 0.0068
- UAGUGACAGUGGAUCUCUGAGGAUUAACA — lower, < 0.0001
- UAGUGACAGACCUUCUCUGAGAGAUCUAACA — lower, 0.0718 ± 0.019
- UAGUCUGUCAGCUUCUCUGAGAGAUUAUGA — lower, 0.00384 ± 0.0032
- UAGUCUGUCACCUUCUCUGGAGAUUAACA — lower, 0.0418 ± 0.013
- UAGUGACACACCUUCUCUCAGAGAUUAACA — lower, 0.0367 ± 0.0073
- UAGUGUGUCACGUUCUCUGAGACAUUAACA — lower, 0.0285 ± 0.0084
- UAGUGAGUCACCUUUCUCUGAGAGAUUAACA — higher, 0.197 ± 0.013
- UAGUGUGUCACCUUCUGUGAGAGAUUAUCA — lower, 0.0181 ± 0.008
- UAGUGACACACCUUCUCUGAGAGAUUAAGCA — higher, 0.185 ± 0.028
- UAGUGAGUCACCAUCUCUGAGAGAAUAACA — within error, 0.106 ± 0.02
- UAGUGACUCACCUUCUCCGAGAGAUUAACA — within error, 0.116 ± 0.027
- UAGUGACACACCUUCUCUGAGAGAUGUAACA — higher, 0.19 ± 0.027
- UAGUCUGUCACCUGCUCUGAGAGAUUAACA — higher, 0.175 ± 0.011
- UAGUGACUCUCCUACUCUGAGAGAUUAACA — lower, 0.0747 ± 0.0051
- UAGUGACAGACCUUCUCUGAGAGAUAUUCA — lower, 0.00527 ± 0.0044
- UAGUGACACUCCUUCUCUGAGAGAUUAAGA — lower, 0.0228 ± 0.0074
- UAGUGAGUCACCUUCUCUGAGAGAUUAACA [g2:g24:cont:t1A] — higher, 0.25 ± 0.021
- UAGUGACAGACCCUUCUCUGAGAGAUUAACA — lower, 0.067 ± 0.013
- UAGUGACAGUCCAAGUCUGAGAGAUUAACA — lower, 0.00651 ± 0.0024
- UAGUGACAGUGCUCUCUGAGAGAUUAACA — lower, 0.00529 ± 0.0016
- UAGUGACAGAUCCUUCUCUGAGAGAUUAACA — within error, 0.122 ± 0.01
- UAGUGACAGUGCAUUCUCUGAGAGAUUAACA — lower, 0.00906 ± 0.0026
- UAGUGAGUCACGUUCUCUGAGAGAUAAACA — lower, 0.0577 ± 0.013
- UAGUGUCGUCACCUUCUCUGAGAGAUUAACA — higher, 0.173 ± 0.011
- UAGUGUCACACCUUCUCUGAGAGAUUAAGA — higher, 0.203 ± 0.043
- UAGUGUGUCACCUACUCUCAGAGAUUAACA — lower, 0.0317 ± 0.0066
- UAGUGACUGACCUUCUCUGAGAGAUUAACA — within error, 0.14 ± 0.011
- UAGUGACACAGCUUCUCUGAGAGAUUAUCA — lower, 0.0365 ± 0.011
- UAGUGAGUCACCUUCUCUGUGAGAUUAUGA — lower, 0.0348 ± 0.01
- UAGUCUGUCUCCUUCACUGAGAGAUUAACA — lower, 0.0957 ± 0.01
- UAGUGUGUCACCUUCUCUGAGAGAUCUAACA — higher, 0.306 ± 0.071
- UAGUGACAGUGCUUCUCUGAGAGAGUUAACA — lower, 0.0191 ± 0.0046
- UAGUCUGUCACCUCUCUCUGAGAGAUUAACA — higher, 0.164 ± 0.015
- UAGUGACAGACCUUCUCUGAGAGAUAAACA — lower, 0.0539 ± 0.011
- UAGUGAGUCACGUUCUCUGAGAGAUUAUGA — lower, 0.035 ± 0.014
- UAGUGACAGUGGUUGCUCUGAGAGAUUAACA — lower, 0.00256 ± 0.0021
- UAGUGAGUCACCUUCUCUGAUGAGAUUAACA — lower, 0.037 ± 0.012
- UAGUGACACACCAUCACUGAGAGAUUAACA — lower, 0.0913 ± 0.011
